From the RNAGym collection of RNA variant scans (doi:10.7554/elife.90254)
The source gives no read counts; variants with many changes may rest on few reads.

B1: LINE1-full (parent)
chain: UACGUAGGUGGUUUUCCCCUGAUAGUGCUAAGGGGGCCUGGAAGUUUGGACUGGGCAGAGCUCAACACAGCGUGGCAAAGUGGCUGUGGCUAGACUGCCUCUCUGGAUUCCUCGUCACUCAGCAGGGCAUCUCUGAGAGAAAUGCC

Variants of: B1
Experiment: self-cleavage, relative activity (ratio to wild type); higher = more cleavage; in vitro, sequencing; the parent is a self-cleaving ribozyme

Variant | self-cleavage
U1C U115C U134A | 0.84
U1G A2G A67G U96C | 0
U1G A30G A65U A107G | 0.6
U1G A69U A136G A140G | 0.24
U1G A117G U119C | 0.71
U1G G36C U100C | 0.66
U1G U12C C38U U87C U112C A117G | 0
U1G U13C A59G A65G A79U G126C | 0.66
U1G U14C U46C A78G | 0.56
A2C A67G A94G U134C | 0.27
A2C A67G A129G | 0
A2C A78G U81A | 0.53
A2C G36A A59U U100G C116A | 0.69
A2C G93A A138G | 0
A2C U14C A94G | 0.1
A2C U20G U130C | 0.85
A2C U26C A107G A124G U143C | 0
A2C U52C U104C A138G G144A | 1.84
A2G A6G U13C A65G | 0.63
A2G A6G U46C | 0
A2G A6G U73G | 0.55
A2G A6G U96C U115A A117G | 0.66
A2G A22G A57U | 0.22
A2G A22G G72A U87C | 0.49

Variant | self-cleavage
A2G A22G U62A U102C | 0
A2G A22U U47C A136U G137A | 0.66
A2G A22U U85C U96G | 0
A2G A24G A43G C101U U115A | 0.77
A2G A24G A57G A67G G114A | 0.92
A2G A24G U119C | 1.31
A2G A30U G32A U39C A67G | 0
A2G A30U U62C U100C A117G G139U | 0
A2G A31G A65G | 0
A2G A31U U46C A78G A129U | 0.43
A2G A42G A43G A64G G139A | 0
A2G A42G U85A A107U | 0.21
A2G A42U A59U U104C | 0.78
A2G A43G A107G U130C | 0.92
A2G A43G A140G | 0
A2G A43G U73C G89A | 0.31
A2G A43G U81C | 0
A2G A50G A67U A138G A142G | 0.13
A2G A50U G86U U115C | 0.11
A2G A50U U85A U87C A141G | 0.29
A2G A57G C76U U100C U143A | 1.02
A2G A59G A69U | 0
A2G A59G U85C G125A | 0
A2G A64U A67G | 0.54

Variant | self-cleavage
A2G A64U A94G U100C A129U | 0.32
A2G A65G U96C U109A | 0.42
A2G A65U U81A G106C | 0.06
A2G A67C U91C A138G | 0.21
A2G A67U A107G U112A A141G | 0
A2G A69U U85C A136U | 0.53
A2G A77G A107U | 1.37
A2G A77G A141G | 0.8
A2G A77G A141U | 0.95
A2G A77G G89U | 0.24
A2G A78G A140G | 0.77
A2G A78G G80U | 0.38
A2G A78U A117G | 1.46
A2G A78U A140G | 2.05
A2G A78U U134A | 0.4
A2G A79C A140G | 1.19
A2G A79G U81C A142G | 0
A2G A79G U91A | 0.84
A2G A79U U115C | 1.2
A2G A92G A129G | 0
A2G A92G U143A | 0.17
A2G A107G A136U | 1
A2G A121U G122A A138G | 1.05
A2G A138G A141G | 1.62

Variant | self-cleavage
A2G A140G A141G | 1.63
A2G C3U G41U U46C U47C A124G | 0.67
A2G C3U U108C | 1.19
A2G C16G U87A U115C | 0
A2G C18U A43G A59G U87C A121U A141G | 0
A2G C18U A50G U85A U104C | 0.18
A2G C19A C99U | 0.64
A2G C19U A50G A67U U85C A140G | 0
A2G C19U A92G U130C U143C C145U | 0.19
A2G C28U U132A U134C A142G | 0.95
A2G C37U G88A A142G | 0.03
A2G C37U U73A A79G | 2.83
A2G C63U A107U | 0.1
A2G C68U A94U A117G U119C A124G A140G | 0.5
A2G C76U U85A A94G | 0.07
A2G C84U A129G | 0.28
A2G C99G A124G | 1.16
A2G C99U A117G A142G | 1.36
A2G C103U A124G A138U | 2.3
A2G C128U U132C | 0.48
A2G G4A U14C C37A A78U U109C U119C | 1.86
A2G G4U A69G | 1.36
A2G G7A U46C | 1.56
A2G G8U U9A G72A A77G A140G | 0.88

Variant | self-cleavage
A2G G10U A129U | 0.87
A2G G21A A142G | 0.76
A2G G34A G105A | 1.44
A2G G35C A129G A136G | 1.39
A2G G36A U81A G126U A138G | 1.76
A2G G36U A43G U85G A141G | 0.13
A2G G41A A69U A79G | 0
A2G G41A G86A | 0.23
A2G G41A U100C U104C U112C | 0.51
A2G G49A A124G G135A C146U | 0.16
A2G G55A A136G | 0.32
A2G G72C U130C | 1.19
A2G G75A A79G U104C A124U | 0.22
A2G G88A U108C A117U A121G A136U A138U | 0
A2G G89A U143C | 0.11
A2G G126A U130G | 0.59
A2G U5A U109C A140U | 0.92
A2G U5C U13C G35A | 1.53
A2G U5C U15A A78G | 0.71
A2G U5C U15C A43G A57G | 0.48
A2G U5C U47C A57U U73A U91C C131U | 0
A2G U9A A22G A69G U134C | 0.44
A2G U9C A42U | 1.12
A2G U9C A50G | 0.77

Variant | self-cleavage
A2G U9C U20C A65G U87G | 0
A2G U9G A59G U108C | 0
A2G U12A A138U | 1.26
A2G U12C A42G A121G | 0
A2G U12C A107U | 0.65
A2G U12C A129G | 0.87
A2G U12C G36A U104A | 0.64
A2G U12C U104A A142G | 0.99
A2G U12G A64U | 0.86
A2G U12G U39C G48A | 0
A2G U13A A43U A121U | 0.34
A2G U13A A64G | 0.29
A2G U13C A50G | 1.97
A2G U13C A65G | 0
A2G U13C A141G | 0.98
A2G U13C C56U A57G | 0.6
A2G U13C G75U | 0.78
A2G U13C G80A | 0.97
A2G U13C U26C A30G U45C U62A C123A | 0
A2G U13C U29A A79G | 0
A2G U13C U39A U109C U115C | 0.48
A2G U13C U85C U91A | 0
A2G U13C U112C | 0.85
A2G U13C U119C A124G A129G | 1.15

Variant | self-cleavage
A2G U13C U134A | 0.54
A2G U13G U14C U73A U102C A140C | 1.7
A2G U14C A64G U130C | 0.51
A2G U14C A64U U119G | 0.46
A2G U14C A77U U143A | 0.36
A2G U14C A78G U115A | 0.91
A2G U14C A140U | 0
A2G U14C U20A U39A A57G A107G | 0
A2G U14C U20C U46C U52A U73A U85C | 0.34
A2G U14C U62A U143A | 0.31
A2G U14C U108C | 0.88
A2G U14C U108C U132C | 0
A2G U14C U143C | 0.6
A2G U15A U26C A67G | 0.44
A2G U15C G35A A64G U87C U130C | 0
A2G U15C G41A A79G | 1.01
A2G U15C U26C | 0.71
A2G U15C U109C A141G | 0.26
A2G U20A A50G | 1.44
A2G U20A A69U | 0.33
A2G U20A U45C A136G U143C | 1.36
A2G U20A U87A U112A | 0.24
A2G U20C A136G | 0.75
